In the supplement of paper PMC4604168 (melanoma cell lines):
The other results are listed elsewhere or left out. Repeats are few or missing, and single values can be far off.

Key:
Assay in all cases: cell count relative to DMSO control; melanoma cells; higher = more viable cells
Details in all cases: library dose: standard library concentration; 72 h
A101D = test system: A101D
A2058 = test system: A2058
A375 = test system: A375
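Also: cells treated in 1,536-well plates, then fixed and DAPI-stained, with nuclei counted from automated high-throughput microscope images.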

SMILES	cell count (A101D) [%]	cell count (A2058) [%]	cell count (A375) [%]
Cc1cn(-c2cc(NC(=O)c3ccc(C)c(Nc4nccc(-c5cccnc5)n4)c3)cc(C(F)(F)F)c2)cn1 [nilotinib] + NCC(=O)Nc1ccc(-n2nc(C(F)(F)F)cc2-c2ccc3c(ccc4ccccc43)c2)cc1 [OSU03012] (first compound 1 µM, partner dose 5 µM)	82.2	70.5	48.1
Cc1cc(Nc2cc(N3CCN(C)CC3)nc(/C=C/c3ccccc3)n2)n[nH]1 + COc1cc2c(Oc3ccc4[nH]c(C)cc4c3F)ncnc2cc1OCCCN1CCCC1 [cediranib] (first compound 0.2 µM, partner dose 2 µM)	73.8	75.5	112
Cn1c(=O)n(-c2ccc(C(C)(C)C#N)cc2)c2c3cc(-c4cnc5ccccc5c4)ccc3ncc21 + Cn1c(Nc2ccc(C(F)(F)F)cc2)nc2cc(Oc3ccnc(-c4ncc(C(F)(F)F)[nH]4)c3)ccc21 [CHIR265] (first compound 0.02 µM, partner dose 0.4 µM)	46.4	33.3	81.5
Cc1cn(-c2cc(NC(=O)c3ccc(C)c(Nc4nccc(-c5cccnc5)n4)c3)cc(C(F)(F)F)c2)cn1 [nilotinib] + COc1ccc(Cl)c(Nc2nc3ccccc3nc2NS(=O)(=O)c2cccc(NC(=O)C(C)(C)N)c2)c1 [XL147] (first compound 1 µM, partner dose 4 µM)	102	89.2	112
Cc1cc(Nc2cc(N3CCN(C)CC3)nc(/C=C/c3ccccc3)n2)n[nH]1 + Cc1cc(N2CCOCC2)cc2[nH]c(-c3c(NC[C@@H](O)c4cccc(Cl)c4)cc[nH]c3=O)nc12 [BMS536924] (first compound 0.2 µM, partner dose 1 µM)	68.1	73.4	99.4
Cc1cn(-c2cc(NC(=O)c3ccc(C)c(Nc4nccc(-c5cccnc5)n4)c3)cc(C(F)(F)F)c2)cn1 [nilotinib] + OCc1c[nH]c2ccccc12 [Indole-3-carbinol] (first compound 1 µM, partner dose 4 µM)	128	120	158
CC(C)C[C@H](NC(=O)[C@H](Cc1ccccc1)NC(=O)c1cnccn1)B(O)O [Bortezomib] + O=C(O)[C@@H]1[O][Sb](=[O])([O][Sb]2(=[O])[O][C@H]([C@H](O)CO)[C@H](O)[C@H](C(=O)O)[O]2)[O][C@H]([C@H](O)CO)[C@@H]1O [stibogluconate] (first compound 0.005 µM, partner dose 10 µM)	10.1	12	74.7
Cc1cn(-c2cc(NC(=O)c3ccc(C)c(Nc4nccc(-c5cccnc5)n4)c3)cc(C(F)(F)F)c2)cn1 [nilotinib] + Cn1nnc2c(C(N)=O)ncn2c1=O [temozolomide] (first compound 1 µM, partner dose 10 µM)	82.4	43.4	113
Cn1c(=O)n(-c2ccc(C(C)(C)C#N)cc2)c2c3cc(-c4cnc5ccccc5c4)ccc3ncc21 + COc1ccc(Cl)c(Nc2nc3ccccc3nc2NS(=O)(=O)c2cccc(NC(=O)C(C)(C)N)c2)c1 [XL147] (first compound 0.02 µM, partner dose 4 µM)	81.3	58.3	91.5
CC(C)C[C@H](NC(=O)[C@H](Cc1ccccc1)NC(=O)c1cnccn1)B(O)O [Bortezomib] + CN(NC(=O)CC(=O)NN(C)C(=S)c1ccccc1)C(=S)c1ccccc1 [STA4783] (first compound 0.005 µM, partner dose 0.03 µM)	16.6	12	87.9
Cc1cc(Nc2cc(N3CCN(C)CC3)nc(/C=C/c3ccccc3)n2)n[nH]1 + O=C(O)[C@@H]1[O][Sb](=[O])([O][Sb]2(=[O])[O][C@H]([C@H](O)CO)[C@H](O)[C@H](C(=O)O)[O]2)[O][C@H]([C@H](O)CO)[C@@H]1O [stibogluconate] (first compound 0.2 µM, partner dose 10 µM)	78.9	84.5	112
Cc1cn(-c2cc(NC(=O)c3ccc(C)c(Nc4nccc(-c5cccnc5)n4)c3)cc(C(F)(F)F)c2)cn1 [nilotinib] + CCc1ccc(CCOc2ccc(CC3SC(=O)NC3=O)cc2)nc1 [pioglitazone] (first compound 1 µM, partner dose 10 µM)	95.6	124	148
COc1ccc(C2=N[C@@H](c3ccc(Cl)cc3)[C@@H](c3ccc(Cl)cc3)N2C(=O)N2CCNC(=O)C2)c(OC(C)C)c1 [Nutlin-3] + CC(=O)O[C@@]12CO[C@@H]1C[C@H](O)[C@@]1(C)C(=O)[C@H](O)C3=C(C)[C@@H](OC(=O)[C@H](O)[C@@H](NC(=O)OC(C)(C)C)c4ccccc4)C[C@@](O)([C@@H](OC(=O)c4ccccc4)[C@H]21)C3(C)C [Docetaxel] (first compound 0.5 µM, partner dose 0.0005 µM)	45.1	8.42	76.7
COc1ccc(C2=N[C@@H](c3ccc(Cl)cc3)[C@@H](c3ccc(Cl)cc3)N2C(=O)N2CCNC(=O)C2)c(OC(C)C)c1 [Nutlin-3] + C[C@@H]1CCN(C(=O)CC#N)C[C@@H]1N(C)c1ncnc2[nH]ccc12 [CP690550] (first compound 0.5 µM, partner dose 5 µM)	70.4	82.7	86.8
Cc1cn(-c2cc(NC(=O)c3ccc(C)c(Nc4nccc(-c5cccnc5)n4)c3)cc(C(F)(F)F)c2)cn1 [nilotinib] + OCCn1cc(-c2cnc3nnn(Cc4ccc5ncccc5c4)c3n2)cn1 [PF04217903] (first compound 1 µM, partner dose 5 µM)	85.9	92.4	117
Cc1cn(-c2cc(NC(=O)c3ccc(C)c(Nc4nccc(-c5cccnc5)n4)c3)cc(C(F)(F)F)c2)cn1 [nilotinib] + O=C(O)c1ccc2c(c1)nc(Nc1cccc(Cl)c1)c1ccncc12 [CX4945] (first compound 1 µM, partner dose 2 µM)	74	92.3	102
COc1ccc(C2=N[C@@H](c3ccc(Cl)cc3)[C@@H](c3ccc(Cl)cc3)N2C(=O)N2CCNC(=O)C2)c(OC(C)C)c1 [Nutlin-3] + C[C@@H](Oc1cc(-c2cnn(C3CCNCC3)c2)cnc1N)c1c(Cl)ccc(F)c1Cl [Crizotinib] (first compound 0.5 µM, partner dose 1 µM)	69.4	58.2	53.9
Cn1c(=O)n(-c2ccc(C(C)(C)C#N)cc2)c2c3cc(-c4cnc5ccccc5c4)ccc3ncc21 + CC(=O)c1c(C)c2cnc(Nc3ccc(N4CCNCC4)cn3)nc2n(C2CCCC2)c1=O [palbociclib] (first compound 0.02 µM, partner dose 0.2 µM)	67.9	61.6	66.3
Cc1cc(Nc2cc(N3CCN(C)CC3)nc(/C=C/c3ccccc3)n2)n[nH]1 + C=CCn1c(=O)c2cnc(Nc3ccc(N4CCN(C)CC4)cc3)nc2n1-c1cccc(C(C)(C)O)n1 [MK1775] (first compound 0.2 µM, partner dose 0.1 µM)	55.4	80.3	50.1
Cc1cc(Nc2cc(N3CCN(C)CC3)nc(/C=C/c3ccccc3)n2)n[nH]1 + CC(C)(C)c1cnc(CSc2cnc(NC(=O)C3CCNCC3)s2)o1 [SNS-032] (first compound 0.2 µM, partner dose 0.05 µM)	64.9	88.5	85.7
Cc1cc(Nc2cc(N3CCN(C)CC3)nc(/C=C/c3ccccc3)n2)n[nH]1 + O=C(O)c1ccc2c(c1)nc(Nc1cccc(Cl)c1)c1ccncc12 [CX4945] (first compound 0.2 µM, partner dose 2 µM)	69.7	76.8	82.8
COc1ccc(C2=N[C@@H](c3ccc(Cl)cc3)[C@@H](c3ccc(Cl)cc3)N2C(=O)N2CCNC(=O)C2)c(OC(C)C)c1 [Nutlin-3] + CC(C)(C)c1cnc(CSc2cnc(NC(=O)C3CCNCC3)s2)o1 [SNS-032] (first compound 0.5 µM, partner dose 0.05 µM)	57.8	75.9	81.6
CC(C)C[C@H](NC(=O)[C@H](Cc1ccccc1)NC(=O)c1cnccn1)B(O)O [Bortezomib] + CC1(C)NC(=O)N(c2ccc([N+](=O)[O-])c(C(F)(F)F)c2)C1=O [nilutamide] (first compound 0.005 µM, partner dose 5 µM)	20.1	9.77	82.3
Cn1c(=O)n(-c2ccc(C(C)(C)C#N)cc2)c2c3cc(-c4cnc5ccccc5c4)ccc3ncc21 + CN1CCN(c2ccc3nc(-c4c(N)c5c(F)cccc5[nH]c4=O)[nH]c3c2)CC1 [Dovitinib] (first compound 0.02 µM, partner dose 0.5 µM)	77.3	41.9	78.8
Cn1c(=O)n(-c2ccc(C(C)(C)C#N)cc2)c2c3cc(-c4cnc5ccccc5c4)ccc3ncc21 + OCc1c[nH]c2ccccc12 [Indole-3-carbinol] (first compound 0.02 µM, partner dose 4 µM)	77.4	73.7	111
Cn1c(=O)n(-c2ccc(C(C)(C)C#N)cc2)c2c3cc(-c4cnc5ccccc5c4)ccc3ncc21 + CC(C)C[C@H](NC(=O)[C@H](Cc1ccccc1)NC(=O)c1cnccn1)B(O)O [Bortezomib] (first compound 0.02 µM, partner dose 0.005 µM)	25.4	30.1	109
